These are yes or no findings as the source states them, for the method shown. For part of these data: In cells and extracts the contact can be indirect. Some results given as binding are weak or reduced against the parent protein; the word gives no strength.
Columns and labels:
[1] = target: V5-tagged BCL7A-Δ20, expressed in HEK293T (human) (UniProt Q4VC05); assay: co-IP; anti-V5 immunoprecipitation from HEK293T cells expressing V5-tagged BCL7A WT, truncations or point mutants; endogenous hSWI/SNF subunits detected (Figures 1D, 7C)
[2] = target: V5-tagged BCL7A WT (isoform a), expressed in HEK293T (human) (UniProt Q4VC05); assay: as above
[3] = target: V5-tagged BCL7A-Δ20, expressed in HEK293T (human) (UniProt Q4VC05); assay: V5-FLAG tandem affinity purification; cBAF isolated from HEK293T (WT or SMARCB1 CTD-deleted) co-overexpressing FLAG-DPF2 and V5-BCL7A WT or Δ20; Coomassie-stained SDS-PAGE, mass spectrometry, Western blot (Figures 1F, 1G, 3C, 3D)
[4] = target: V5-tagged BCL7A WT (isoform a), expressed in HEK293T (human) (UniProt Q4VC05); assay: as above
FLAG-tagged DPF2 (human) = FLAG-tagged DPF2 (human) (UniProt Q92785); assay: as above
[5] = target: V5-tagged BCL7A-Δ31, expressed in OCI-LY1 (human) (UniProt Q4VC05); assay: co-IP; anti-V5 immunoprecipitation from OCI-LY1 cells expressing V5-tagged BCL7A WT, truncations or point mutants; endogenous hSWI/SNF subunits detected (Figures 4B, 7D)
[6] = target: V5-tagged BCL7A WT, expressed in OCI-LY1 (human) (UniProt Q4VC05); assay: as above
[7] = target: V5-tagged BCL7A-Δ20, expressed in OCI-LY1 (human) (UniProt Q4VC05); assay: as above

Chains of the proteins cited; added tags and fusions are not shown. Lines headed by an entry give the natural chain unless they say otherwise; changes in a name come on top. A line that says so, or that is headed by a name, gives the form on record, which may keep a tag or linker.
V5-tagged BCL7A-Δ20, expressed in OCI-LY1 (Q4VC05, form named): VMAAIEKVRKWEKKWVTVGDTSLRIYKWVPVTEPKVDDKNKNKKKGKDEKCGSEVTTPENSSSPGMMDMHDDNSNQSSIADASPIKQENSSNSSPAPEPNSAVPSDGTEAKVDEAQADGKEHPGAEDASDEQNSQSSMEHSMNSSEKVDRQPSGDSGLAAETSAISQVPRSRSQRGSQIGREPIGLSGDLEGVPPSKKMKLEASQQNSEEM
V5-tagged BCL7A WT, expressed in OCI-LY1 (Q4VC05, form named): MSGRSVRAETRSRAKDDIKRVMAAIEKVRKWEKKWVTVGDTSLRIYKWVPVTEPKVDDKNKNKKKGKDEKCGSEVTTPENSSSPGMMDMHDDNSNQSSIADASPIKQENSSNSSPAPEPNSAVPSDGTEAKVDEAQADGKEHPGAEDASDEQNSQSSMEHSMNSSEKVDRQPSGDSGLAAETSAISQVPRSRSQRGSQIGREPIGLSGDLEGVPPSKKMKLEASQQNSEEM
V5-tagged BCL7A-Δ31, expressed in OCI-LY1 (Q4VC05, form named): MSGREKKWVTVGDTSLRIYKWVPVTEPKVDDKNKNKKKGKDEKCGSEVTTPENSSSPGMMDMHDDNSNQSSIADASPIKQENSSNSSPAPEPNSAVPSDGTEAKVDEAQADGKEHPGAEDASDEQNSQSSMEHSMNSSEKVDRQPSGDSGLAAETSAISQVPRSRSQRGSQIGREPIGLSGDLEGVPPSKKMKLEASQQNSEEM
UniProt Q92785: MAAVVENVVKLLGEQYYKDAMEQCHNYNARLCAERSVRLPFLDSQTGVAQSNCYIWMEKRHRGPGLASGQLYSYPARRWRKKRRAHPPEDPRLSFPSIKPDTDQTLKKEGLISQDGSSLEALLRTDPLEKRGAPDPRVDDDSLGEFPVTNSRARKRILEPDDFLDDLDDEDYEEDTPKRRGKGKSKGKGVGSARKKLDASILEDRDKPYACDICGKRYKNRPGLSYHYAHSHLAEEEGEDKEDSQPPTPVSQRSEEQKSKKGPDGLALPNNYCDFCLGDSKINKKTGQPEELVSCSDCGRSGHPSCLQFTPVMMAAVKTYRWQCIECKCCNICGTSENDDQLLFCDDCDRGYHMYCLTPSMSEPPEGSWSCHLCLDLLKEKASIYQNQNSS
UniProt Q9H8M2: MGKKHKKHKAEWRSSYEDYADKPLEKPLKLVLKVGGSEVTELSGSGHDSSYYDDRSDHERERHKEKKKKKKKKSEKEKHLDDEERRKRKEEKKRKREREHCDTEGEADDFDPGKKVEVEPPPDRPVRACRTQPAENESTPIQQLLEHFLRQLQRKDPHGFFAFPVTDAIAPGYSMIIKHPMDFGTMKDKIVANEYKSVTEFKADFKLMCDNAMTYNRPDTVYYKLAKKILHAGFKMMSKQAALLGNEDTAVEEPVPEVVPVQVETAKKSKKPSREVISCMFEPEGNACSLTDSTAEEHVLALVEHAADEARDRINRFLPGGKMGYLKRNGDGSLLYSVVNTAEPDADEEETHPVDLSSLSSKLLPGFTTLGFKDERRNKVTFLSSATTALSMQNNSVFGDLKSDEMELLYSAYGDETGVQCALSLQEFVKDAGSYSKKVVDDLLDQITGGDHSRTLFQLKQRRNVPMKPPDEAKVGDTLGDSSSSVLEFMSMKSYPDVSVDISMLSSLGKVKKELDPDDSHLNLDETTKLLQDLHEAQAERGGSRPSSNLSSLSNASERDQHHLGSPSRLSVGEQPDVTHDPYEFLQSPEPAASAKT
UniProt Q12824: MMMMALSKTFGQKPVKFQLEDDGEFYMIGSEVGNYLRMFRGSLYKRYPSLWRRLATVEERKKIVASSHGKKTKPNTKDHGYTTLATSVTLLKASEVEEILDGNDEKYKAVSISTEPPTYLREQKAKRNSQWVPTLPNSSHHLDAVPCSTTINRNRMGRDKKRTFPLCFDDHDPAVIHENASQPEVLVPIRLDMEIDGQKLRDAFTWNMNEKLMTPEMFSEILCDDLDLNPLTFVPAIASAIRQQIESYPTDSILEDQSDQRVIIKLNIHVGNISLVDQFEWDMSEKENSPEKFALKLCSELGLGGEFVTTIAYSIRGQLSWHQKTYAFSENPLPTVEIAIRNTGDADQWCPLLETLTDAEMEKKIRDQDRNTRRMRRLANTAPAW

Row | Substance | binding [3] | binding [4] | binding [5] | binding [6] | binding [7] | also measured
1 | BRD9, endogenous in HEK293T (from UniProt Q9H8M2 1-597) |  |  |  |  |  | binding [1]: binds; binding [2]: binds
2 | SMARCB1, endogenous in HEK293T (from UniProt Q12824 1-385) | binds | binds |  |  |  | 
3 | BRG1, endogenous in HEK293T (from UniProt P51532 1-1647) | binds | binds |  |  |  | binding (FLAG-tagged DPF2 (human)): binds
4 | BRG1, endogenous in OCI-LY1 (from UniProt P51532 1-1647) |  |  | binds weakly | binds | binds | 

More lines, main results first:

Row | binding [3] | binding [4] | binding [5] | binding [6] | binding [7] | Substance | also measured
5 | binds | binds |  |  |  | FLAG-tagged DPF2 (from UniProt Q92785 1-391) | 
6 |  |  | no binding | binds | binds | BRD9, endogenous in OCI-LY1 (from UniProt Q9H8M2 1-597) | 
